For assay [1], the target named is T1, mouse 129 SIRP-α D1 domain (mouse (129 strain), UniProt P97797 32-150).
T1 construct: also called m129
T1 chain: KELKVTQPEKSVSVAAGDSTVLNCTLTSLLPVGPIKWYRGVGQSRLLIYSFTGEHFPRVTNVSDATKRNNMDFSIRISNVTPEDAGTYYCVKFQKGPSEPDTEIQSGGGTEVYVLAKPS
As to the kind of experiment: SPR. An outline of the steps:
(§1)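 Pre-filtered culture media supplied the scFv-Fc antibody clones, which were captured by anti-human IgG Fc amine-coupled (about 4000 RU) to a GLC chip on a ProteOn XPR36. SIRP analytes were flowed in PBS pH 7.4 with 0.01% Tween-20 at 25° C. Interspot and buffer-blank responses were subtracted from the data, which were then fitted to a 1:1 Langmuir model. Dissociation rate constants (koff) were derived from this fitting.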
In general terms: Surface plasmon resonance follows binding to a sensor surface in real time, without labels.

The target of assay [2] is T2, NOD mouse SIRP-α D1 domain (mouse (NOD strain)).
T2 chain: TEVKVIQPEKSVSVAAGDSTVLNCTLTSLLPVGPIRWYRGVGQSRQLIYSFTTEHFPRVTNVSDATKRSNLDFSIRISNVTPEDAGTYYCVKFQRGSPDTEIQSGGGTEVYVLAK
Put plainly: SPR. An outline of the steps: as §1

Assay [3] has as its target T3, C57BL/6 mouse SIRP-α D1 domain (mouse (C57BL/6 strain), UniProt P97797 32-148).
T3 sequence: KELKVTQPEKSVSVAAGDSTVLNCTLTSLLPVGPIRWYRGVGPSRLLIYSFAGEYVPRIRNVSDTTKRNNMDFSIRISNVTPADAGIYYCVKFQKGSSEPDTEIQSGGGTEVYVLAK
Put plainly: SPR. An outline of the steps:
as §1

In assay [4] the target is T4, high affinity SIRP-α D1 variant CV1-3.
T4 chain: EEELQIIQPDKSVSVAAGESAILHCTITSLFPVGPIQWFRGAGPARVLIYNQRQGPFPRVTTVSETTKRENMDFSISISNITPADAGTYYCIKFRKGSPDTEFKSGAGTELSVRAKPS
As to the kind of experiment: SPR, Langmuir fit. An outline of the steps: as §1

In assay [5] the target is T5, cynomolgus SIRP-α D1 domain (cyno2) (cynomolgus monkey, UniProt Q5TFQ8 30-148 (human entry), limits assumed).
T5 chain: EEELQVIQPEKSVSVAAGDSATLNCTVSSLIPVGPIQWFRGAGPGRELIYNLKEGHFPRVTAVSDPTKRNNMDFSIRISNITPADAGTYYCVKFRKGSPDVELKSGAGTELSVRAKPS
Put plainly: SPR, Langmuir fit. An outline of the steps:
as §1

Assay [6] concerns the target T6, human SIRP-α v1 D1 domain (human, UniProt P78324 31-149).
T6 construct: also called human v1
As to the kind of experiment: SPR, Langmuir fit. In a few lines:
as §1

The target in assay [7] is T7, human SIRPβ isoform 1 (human, UniProt O00241 30-148).
T7 construct: also called SIRPb; sirpb1
As to the kind of experiment: SPR, Langmuir fit. An outline of the steps:
as §1

For assay [8], the target named is T8, human SIRPγ isoform 1 (human, UniProt Q9P1W8 29-147).
T8 construct: also called SIRPg; sirpg
Put plainly: SPR, Langmuir fit. In a few lines:
as §1

For assay [9], the target named is T9, cynomolgus SIRP-α D1 domain (cyno1) (cynomolgus monkey, UniProt Q5TFQ8 30-148 (human entry), limits assumed).
T9 chain: T5 chain with D19E, V27A, S28T, A42V, N51H, L52Q, A62P
As to the kind of experiment: SPR, Langmuir fit. In a few lines: as §1

In assay [10] the target is T10, human SIRP-α v2 D1 domain (human).
T10 construct: also called human v2
As to the kind of experiment: SPR, Langmuir fit. An outline of the steps: as §1

In assay [11] the target is T11, cynomolgus SIRP-α D1 domain (SEQ ID NO:11) (cynomolgus, UniProt Q5TFQ8 30-148 (human entry), limits assumed).
T11 construct: also called cyno1
T11 chain: T5 chain with D19E, V27A, S28T, A42V, N51H, L52Q, A62P
Put plainly: SPR, captured scFv-Fc, 100 nM analyte; LB = very low binding. As to the method: Binding of the antibody clones to various SIRP proteins was determined using surface plasmon resonance (SPR) detection on a ProteOn XPR36 instrument (Bio-Rad, Hercules, Calif.) using phosphate buffered saline (PBS, pH 7.4) supplemented with 0.01% Tween-20 (PBST) as running buffer. The pre-filtered media containing the secreted antibodies was used directly for the assay. First, anti-Human IgG Fc (BR-1008-39, GE Healthcare) was amine-coupled onto a GLC sensor chip to generate the capture surfaces for the antibodies. About 4000 RU per flow cell of immobilized anti-human IgG Fc is achieved. Each clone is screened using the same method as follows.
(1) ‥5-10 uL of pre-filtered media in 10 mM sodium acetate buffer (pH4.5) was injected for 2 mins at 30 ul/min;
The koff rates of binding of each clone to each SIRP analyte were determined using SPR (Table C). The SPR screening conditions have been described herein, and the Koff values were determined using Langmuir kinetic fittings. The CD47 blocking properties (block, non-block, kick-off) are described in the last column of the Table C. Each antibody is identified according to its corresponding SEQ ID NO. SIRP analyte sequences are as follows: CV1-3, SEQ ID NO:18; v1, SEQ ID NO:5; v2, SEQ ID NO:6; cyno1, SEQ ID NO:11; cyno2, SEQ ID NO:12; m129, SEQ ID NO:7; NOD, SEQ ID NO: 8; BL6, SEQ ID NO:9; sirpb1, SEQ ID NO:13; sirpg, SEQ ID NO:15.

Assay [12] concerns the target T12, human SIRP-α v2 D1 domain (human).
T12 construct: also called human v2; human α v2
Put plainly: SPR, captured scFv-Fc. An outline of the steps:
as §1

The target in assay [13] is T13, NOD mouse SIRP-α D1 domain (mouse (NOD strain)).
T13 chain: T2 chain
As to the kind of experiment: SPR, captured scFv-Fc. In a few lines: as §1

Assay [14] concerns the target T14, mouse 129 SIRP-α D1 domain (mouse (129 strain), UniProt P97797 32-150).
T14 construct: also called m129
T14 chain: T1 chain
As to the kind of experiment: SPR, captured scFv-Fc, 100 nM analyte.

Assay [15] has as its target T15, C57BL/6 mouse SIRP-α D1 domain (mouse (C57BL/6 strain), UniProt P97797 32-148).
T15 sequence: T3 sequence
As to the kind of experiment: SPR, captured scFv-Fc, 100 nM analyte.

Assay [16] addresses T16, cynomolgus SIRP-α D1 domain (SEQ ID NO:12) (cynomolgus, UniProt Q5TFQ8 30-148 (human entry), limits assumed).
T16 construct: also called cyno2; Cyno2
T16 chain: T5 chain
As to the kind of experiment: SPR, captured scFv-Fc, 100 nM analyte.

The target of assay [17] is T17, human SIRP-α v1 D1 domain (human, UniProt P78324 31-149).
T17 construct: also called human v1; human α v1
Put plainly: SPR, captured scFv-Fc, 100 nM analyte.

For assay [18], the target named is T18, high affinity SIRP-α D1 variant CV1-3 (human).
T18 chain: T4 chain
Put plainly: SPR, captured scFv-Fc, 100 nM analyte.

Assay [19] deals with T15, C57BL/6 mouse SIRP-α D1 domain. As to the kind of experiment: SPR, captured scFv-Fc. In a few lines: as §1
The target in assay [20] is T19, human SIRPβ isoform 1 (human, UniProt O00241 30-148).
T19 construct: also called sirpb1; Sirpb1
Put plainly: SPR, captured scFv-Fc, 100 nM analyte.

The target of assay [21] is T12, human SIRP-α v2 D1 domain. Put plainly: SPR, captured scFv-Fc, 100 nM analyte.
In assay [22] the target is T20, human SIRPγ isoform 1 (human, UniProt Q9P1W8 29-147).
T20 construct: also called sirpg; sirp-g
Put plainly: SPR, captured scFv-Fc, 100 nM analyte.

Assay [23] has as its target T11, cynomolgus SIRP-α D1 domain (SEQ ID …). Put plainly: SPR, captured scFv-Fc, 100 nM analyte.
Assay [24] deals with T13, NOD mouse SIRP-α D1 domain. Put plainly: SPR, captured scFv-Fc, 100 nM analyte.
Assay [25] deals with T14, mouse 129 SIRP-α D1 domain. As to the kind of experiment: SPR, captured scFv-Fc. In a few lines: as §1

Positions count from the first letter of the chain named.

B1: S118 (scFv)
scFv: ETVLTQSPATLSVSPGERATLSCRASQTVGSKLAWHQQKPGQAPRLLIYDASRRATGIPDRFSGSGSGTDFTLTISSLQTEDSAVYYCQQYYYWPPYRFGGGTKVEIKGQSSRSSGGGGSSGGGGSDVQLVESGGGVVRPGESLRLSCAASGFSFSSYAMNWVRQAPGEGLEWVSRINSGGGGTDYAESVKGRFTISRDNSENTLYLQMNSLRAEDTAVYYCAKQYDWNGFFDYWGLGALVTVSSSL[letters of human IgG1 Fc with C220S (EU numbers) and a few adjoining residues left out]
Turning to B1, the binding result in assay [1], in assay [2] and in assay [3] was “no binding (tested: Koff > 5 × 10^3 (legend))” throughout. Also, the koff in assay [4] turned out to be 0.000247 s⁻¹; in [5] it was 8.06e-05 s⁻¹; in assay [6] it was 9.17e-06 s⁻¹; in assay [7], 1.31e-05 s⁻¹; in assay [8], 1.13e-05 s⁻¹; in assay [9], 6.97e-05 s⁻¹. The molecule also registered a koff in assay [10] of 4.12e-05 s⁻¹.

B2: S2 scFv-Fc (scFv)
scFv: AVTQPASVSANPGETVRITCSGDSSSYYSWHQQKSPGSAPVSVIYSNTDRPSDIPSRFSGSASGSTATLTITGVQAEDEAVYFCGAYDSSSDSDIFGAGTTLTVLGQSSRSSGGGGSSGGGGSMAAVTLDESGGGLQTPGGGLSLVCKASGFDFSNFNMAWVRQGPGKGLEYVAEISDTGSTPYYGSAVQGRATISRDNGQSTVRLQLNNLRAEDTGTYFCTRNFGSSVSSIDAWGHGTEVIVSSSL[letters of human IgG1 Fc with C220S (EU numbers) and a few adjoining residues left out]
For B2, the results for the binding result in assay [11], in [12] and in assay [13] were “binds”, “no binding (tested: 100 nM)” and “no binding (tested: 100 nM)”, respectively. The koff in assay [14] came out at 0.0142 s⁻¹; in [15], 0.00885 s⁻¹; in assay [16], 0.00559 s⁻¹; in assay [17], 0.00252 s⁻¹; in assay [18], 0.149 s⁻¹.

B3: S130 scFv-Fc (scFv)
scFv: EIVLTQSPGTLSVSPGERATLSCRASQNVRSDLAWYQQKLGQAPRLLIYDANTRATDIPDRFSGSGSGTEFTLTISSLQSEDFAVYYCQHYYDWPPVTFGGGTKVEIKGQSSRSSGGGGSSGGGGSDVQLVESGGGVVRPGESLRLSCAASGFTFSNYAMSWVRQAPGEGLEWVSLITTNGDGAYYADSVKGRFTISRDNSKNTLYLQMNSLRAEDTAIYYCAKDGAAHYYDIFFDYWGLGTPVTVSSSL[letters of human IgG1 Fc with C220S (EU numbers) and a few adjoining residues left out]
As to B3, the binding result in [11] is “binds”; in [19], “no binding (tested: 100 nM)”. For the same molecule, in assay [18], the off-rate (koff) came to 0.00373 s⁻¹.

B4: S14 scFv-Fc (scFv)
scFv: AVTQPASVSANLGETVKITCSGDSSYYGWYQQKAPGSAPVTLIYDNDKRPSNIPSRFSGSKSGSTATLTITGVQADDEAVYYCGNEDMNYVGIFGAGTTLTVLGQSSRSSGGGGSSGGGGSMAAVTLDESGGGLQTPGGALSLVCKASGFTFNSYNMGWVRQAPGKGLEFVAGIYSAGGDTSTTYGAAVNGRATISRDNGQSTVRLQLNNLRAEDTGIYFCAKAAGGCTAHNCDAYIADSIDAWGHGTEVIVSSSL[letters of human IgG1 Fc with C220S (EU numbers) and a few adjoining residues left out]
Turning to B4, the koff in assay [14] was 0.0373 s⁻¹; in assay [20] it was 6.01e-05 s⁻¹; in [21], 7.64e-05 s⁻¹; in [15] it was 0.0181 s⁻¹; in [22] it was 0.000126 s⁻¹; in assay [16], 0.000452 s⁻¹. The koff in assay [17] was 5.42e-05 s⁻¹; in [23], 0.000649 s⁻¹; in assay [24] it was 0.00498 s⁻¹; in [18], 0.00333 s⁻¹.

B5: S123 scFv-Fc (scFv)
scFv: EIVLTQSPGTLSVSPGERVTLTCRASQGIAGKIAWYQQKPGQAPRLLIYDASSRATGIPGRFSGSGSGTEFTLTITSLQSEDFAVYYCQQHYDWSPLTFGGGTKVEIKGQSSRSSGGGGSSGGGGSDVQLVESGGGLVQPGGSLRLSCTASGFTFRNYGMSWVRQAPGEGLEWVSASSGSGSTYYTDSVKGRFTISRDNSKNTLYLQMNSLRAEDTAIYYCAKVTWNNFFDYWGLGTLVTVSSSL[letters of human IgG1 Fc with C220S (EU numbers) and a few adjoining residues left out]
For B5, the binding result in assay [25], in [12], in assay [19] and in assay [13] was “no binding (tested: 100 nM)” throughout. The koff in assay [22] was 0.00143 s⁻¹; in assay [16], 0.00154 s⁻¹; in assay [17], 0.00155 s⁻¹; in assay [23] it was 0.00157 s⁻¹; in assay [18] it was 0.00131 s⁻¹.

Broadly, the koff is the first-order rate constant of dissociation.

(Values after patent US20210363269A1 (ALX ONCOLOGY, published 2021).)
